# Measurements as given in paper PMC4336329 (PLoS ONE, 2015).
# About 2,200 (0.71%) of roughly 310,000 compounds showed an effect of 50% or more. The effect is printed as a negative number. The list shows a part of the results.
# Molecular target: human ether-à-go-go-related gene (hERG) potassium channel (human, UniProt Q12809)
# Assay: primary screen, population patch clamp on CHO cells stably expressing hERG
# Chain of human ether-à-go-go-related gene (hERG) potassium channel (Q12809 whole entry, looked up): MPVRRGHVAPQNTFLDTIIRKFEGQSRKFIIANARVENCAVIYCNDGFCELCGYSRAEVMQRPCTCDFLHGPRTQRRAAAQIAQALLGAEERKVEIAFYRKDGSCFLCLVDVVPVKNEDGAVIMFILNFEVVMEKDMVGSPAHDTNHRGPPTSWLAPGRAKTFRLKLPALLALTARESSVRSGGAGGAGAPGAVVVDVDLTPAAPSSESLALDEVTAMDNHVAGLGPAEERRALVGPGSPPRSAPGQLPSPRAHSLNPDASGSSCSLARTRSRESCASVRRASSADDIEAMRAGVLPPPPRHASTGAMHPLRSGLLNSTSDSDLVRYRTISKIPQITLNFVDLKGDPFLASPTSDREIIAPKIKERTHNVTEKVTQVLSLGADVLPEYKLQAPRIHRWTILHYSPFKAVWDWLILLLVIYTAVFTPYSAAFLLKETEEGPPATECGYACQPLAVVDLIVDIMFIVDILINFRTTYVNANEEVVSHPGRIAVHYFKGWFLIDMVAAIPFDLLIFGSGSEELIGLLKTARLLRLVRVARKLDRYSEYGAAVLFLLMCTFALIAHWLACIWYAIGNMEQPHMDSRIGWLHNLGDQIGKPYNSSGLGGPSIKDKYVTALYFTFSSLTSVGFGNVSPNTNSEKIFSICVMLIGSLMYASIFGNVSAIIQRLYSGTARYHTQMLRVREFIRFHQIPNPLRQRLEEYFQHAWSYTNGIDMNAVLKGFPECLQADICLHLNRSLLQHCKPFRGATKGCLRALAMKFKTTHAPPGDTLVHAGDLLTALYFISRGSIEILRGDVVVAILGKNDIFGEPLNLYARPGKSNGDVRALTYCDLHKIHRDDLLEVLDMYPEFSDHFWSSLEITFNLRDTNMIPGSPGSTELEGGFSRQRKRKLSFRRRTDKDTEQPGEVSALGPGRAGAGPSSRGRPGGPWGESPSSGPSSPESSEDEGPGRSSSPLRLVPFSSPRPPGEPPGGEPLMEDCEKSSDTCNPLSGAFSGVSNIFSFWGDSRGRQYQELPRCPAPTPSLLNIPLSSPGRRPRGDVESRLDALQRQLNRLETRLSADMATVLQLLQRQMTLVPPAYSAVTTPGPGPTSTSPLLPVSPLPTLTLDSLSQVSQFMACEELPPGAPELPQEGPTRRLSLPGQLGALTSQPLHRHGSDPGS
row,Structure (SMILES),"hERG current change (%, negative = inhibition) at 1uM"
1,COc1ccc(N2C(=O)CC(NCC#N)C2=O)cc1 (centres unmarked),6.33%
2,COc1ccc(CNc2nc(-c3ccccc3)nn2C(=O)c2cccs2)cc1,4.21%
3,O=c1[nH]c(=O)n(Cc2ccco2)c(O)c1C=NCCCn1ccnc1,11.1%
4,COCCCN1C(=O)C(=O)/C(=C(/O)c2ccc(OCC(C)C)cc2C)C1c1cccnc1 (centres unmarked),-0.684%
5,CC(C)CC(NC(N)=O)C(=O)Nc1ccc(Oc2ccccc2)cc1 (centres unmarked),10.6%
6,Oc1ccccc1N1CCN(C(=S)Nc2ccc(SC(F)F)cc2)CC1,11.5%
7,Cc1ccc(NS(=O)(=O)c2cccc(C(=O)NCC(c3ccco3)N3CCCC3)c2)cc1 (centres unmarked),-9.09%
8,C[C@]12C=CC(=O)C=C1CC[C@H]1[C@@H]3C[C@@H](O)[C@](O)(C(=O)CO)[C@@]3(C)C[C@H](O)[C@@]12F,11.6%
9,CCc1nnc(NS(=O)(=O)c2ccc(NC(=O)CCC(=O)O)cc2)s1,19.5%
10,Cc1ccc(S(=O)(=O)C2(C(=O)N3CCN(c4ccccc4F)CC3)CC2)cc1,8.15%
11,CCC(C)[C@H](NC(=O)N1CC(=O)Nc2ccccc21)C(=O)N[C@@H](C(=O)O)c1ccccc1 (some centres unmarked),17.2%
12,CC1(C)CC(=O)C(C(C2=C(O)CC(C)(C)CC2=O)c2ccco2)C(=O)C1 (centres unmarked),9.36%
13,Cc1ccc(CNc2nc(N)c([N+](=O)[O-])c(NCc3ccccc3)n2)cc1,12.9%
14,Cc1oc2nc(SCCCC(=O)NCCCO)nc(N)c2c1C,11%
15,CCC1(C)Cc2c(C#N)c(SC)nc(N3CCOCC3)c2CO1 (centres unmarked),10.1%
16,CCC(=O)Nc1sc2c(c1C#N)CCCCC2,8.12%
17,COc1ccc(CNC(=O)C2CCN(S(=O)(=O)c3ccc(SC)cc3)CC2)cc1,11.3%
18,Cc1cc(C)cc(-n2nnc(C(=O)NCc3ccccc3Cl)c2N)c1,8.27%
19,CCCCn1c(O)c(C(C)=Nc2ccc(C(=O)O)cc2)c(=O)[nH]c1=O,14.6%
20,COc1cc2cc(C(c3nnnn3C(C)(C)C)N3CCc4ccccc4C3)c(=O)[nH]c2cc1OC (centres unmarked),-3.88%
21,COCCC(=O)N1CCC(Oc2ccc(C(=O)NC(C)CCn3cccn3)cc2)CC1 (centres unmarked),10.3%
22,Cc1noc(C)c1CSCC(=O)OCC(=O)NC1CCCCC1,13.5%

row,Structure (SMILES),"hERG current change (%, negative = inhibition) at 1uM"
1,CCOCc1nnc(NC(=O)C2CCN(C(=O)C3CC(=O)N(c4ccc(C)cc4)C3)CC2)s1 (centres unmarked),12.4%
2,COc1cc(NC(=O)C2CC(c3ccccc3O)=NO2)c(OC)cc1Cl (centres unmarked),12.3%
3,COc1cccc(CN2CCSCC2)c1,12%
4,COc1cc(/C=N/n2cnnc2-n2nc(C)cc2C)cc([N+](=O)[O-])c1O,-2.73%
5,CC(c1ccccc1)N1C(=O)C2C3CCC(C3)C2C1=O (centres unmarked),9.41%
6,COC(=O)c1ccc([N+](=O)[O-])c(CS(=O)(=O)c2ccc(Cl)cc2)c1,8.08%
7,COCCCNC(=O)c1ccc([N+](=O)[O-])c(Cl)c1,5.23%
8,CCOC(=O)C1CCCN(C(=O)c2ccc3oc(Cc4ccccc4)nc3c2)C1 (centres unmarked),-7.47%
9,O=C(O)C1C2C=CC(O2)C1C(=O)NCc1ccc2c(c1)OCO2 (centres unmarked),12.4%
10,O=S(=O)(Nc1nc2ccccc2nc1N1CCN(c2ccccc2)CC1)c1ccc(F)cc1,15.3%
11,CC1(C)C(=O)Nc2ccccc2N1C(=O)COC(=O)Cc1c(F)cccc1Cl,-4.56%
12,Cc1ccccc1C(=O)/C=C1\NC(=O)CS1,6.92%
13,COC(=O)c1ccc(C23CC4(C2)[C@H](CN(Cc2ccc(-c5ccccc5)cc2)[C@@H]4c2ccccc2)C3c2ccc(Cl)nc2)cc1 (some centres unmarked),-2.88%
14,Cc1ccc(NC(=O)Cn2nc(C)cc2C)cc1,7.66%
15,CCn1cc(CN2CCN(CCc3ccccc3)C(CCO)C2)c(C)n1 (centres unmarked),7.56%
16,COc1ccc(NC(=O)Nc2ccccn2)cc1OC,25.4%
17,O=C(Nc1ccc2c(c1)CCC2)C1CCCN(c2ncccn2)C1 (centres unmarked),9.72%
18,COCCNC(=O)c1ccc(CS(=O)(=O)c2ccc(C)cc2)o1,-13.7%
19,Cc1ccc(/C=C2\Oc3c(ccc(O)c3CN3CCN(C)CC3)C2=O)cc1,7.06%
20,Cc1ccc(Cl)cc1N1CCN(CC(O)COCc2ccco2)CC1.O=C(O)C(=O)O (centres unmarked),-29.2%
21,Cc1cc(=O)[nH]c(NCCO)n1,14.5%
22,CCCc1ccc(OCCNC(=O)c2ccco2)cc1,-6.16%
